In ChEMBL document CHEMBL1201862, “PubChem BioAssay data set” (2004):
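In this assay, cells in 96-well plates receive the compound at five concentrations for 48 hours. Endpoints are linearly interpolated between the surrounding concentrations. Abbreviation: GI50, concentration required for 50% inhibition of growth.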 Calls of active or inactive are those of the source. Cut-off read from the data, not from the text of the source: active = GI50 up to about 1.1 µM and inactive = higher.

Key:
Test in all cases: growth of human tumour cells (NCI), 48 h
NCI-H522 = tested on: NCI-H522
SF-539 = tested on: SF-539
HCC 2998 = tested on: HCC 2998
HT-29 = tested on: HT-29
T47D = tested on: T47D
CCRF-CEM = tested on: CCRF-CEM
ACHN = tested on: ACHN
UACC-257 = tested on: UACC-257
LXFL 529 = tested on: LXFL 529
UACC-62 = tested on: UACC-62
HCT-116 = tested on: HCT-116
SR = tested on: SR
786-0 = tested on: 786-0
KM-20L2 = tested on: KM-20L2
HCT-15 = tested on: HCT-15
M14 = tested on: M14
NCI-H226 = tested on: NCI-H226
NCI/ADR-RES = tested on: NCI/ADR-RES
M19-MEL = tested on: M19-MEL
RXF 631 = tested on: RXF 631
SW-620 = tested on: SW-620
MDA-MB-435 = tested on: MDA-MB-435
MOLT-4 = tested on: MOLT-4
BT-549 = tested on: BT-549
A498 = tested on: A498
Malme-3M = tested on: Malme-3M
RXF 393 = tested on: RXF 393
SK-MEL-2 = tested on: SK-MEL-2
MDA-N = tested on: MDA-N
IGROV-1 = tested on: IGROV-1
LOX IMVI = tested on: LOX IMVI
HOP-62 = tested on: HOP-62
XF498 = tested on: XF498
SN12C = tested on: SN12C
HOP-18 = tested on: HOP-18
EKVX = tested on: EKVX
HOP-92 = tested on: HOP-92
HL-60 = tested on: HL-60
SF-268 = tested on: SF-268
MDA-MB-231 = tested on: MDA-MB-231
SF-295 = tested on: SF-295
PC-3 = tested on: PC-3
DU-145 = tested on: DU-145
SK-MEL-5 = tested on: SK-MEL-5
NCI-H23 = tested on: NCI-H23
A549 = tested on: A549
K562 = tested on: K562
NCI-H460 = tested on: NCI-H460
CAKI-1 = tested on: CAKI-1
DMS-273 = tested on: DMS-273
SNB-75 = tested on: SNB-75
RPMI-8226 = tested on: RPMI-8226
SNB-19 = tested on: SNB-19
OVCAR-8 = tested on: OVCAR-8
DMS-114 = tested on: DMS-114
TK-10 = tested on: TK-10
U-251 = tested on: U-251
SNB-78 = tested on: SNB-78
SK-MEL-28 = tested on: SK-MEL-28
MCF7 = tested on: MCF7
OVCAR-3 = tested on: OVCAR-3
Hs-578T = tested on: Hs-578T
DLD-1 = tested on: DLD-1
KM12 = tested on: KM12
OVCAR-4 = tested on: OVCAR-4
COLO 205 = tested on: COLO 205
UO-31 = tested on: UO-31
OVCAR-5 = tested on: OVCAR-5

Measured: GI50

COc1cc2c(c(OC)c1OC)-c1ccc(SC)c(=O)cc1[C@@H](NC(C)=O)CC2 [THIOCOLCHICINE]
inactive: T47D > 100 µM | UACC-257 = 1.87 µM | HOP-18 = 23.2 µM | EKVX 14.4 µM | TK-10 = > 10 µM | SK-MEL-28 = 50.7 µM | OVCAR-4 = 20.7 µM | UO-31 = 1.26 µM
active: NCI-H522 = < 0.01 µM | SF-539 = < 0.01 µM | HCC 2998 = < 0.01 µM | HT-29 = < 0.01 µM | CCRF-CEM < 0.01 µM | ACHN 0.0114 µM | LXFL 529 = < 0.01 µM | UACC-62 = < 0.01 µM | HCT-116 = < 0.01 µM | SR < 0.01 µM | 786-0 = < 0.01 µM | KM-20L2 = < 0.01 µM | M14 = 0.0631 µM | NCI-H226 = 0.0631 µM | NCI/ADR-RES < 0.01 µM | M19-MEL < 0.01 µM | RXF 631 = < 0.01 µM | SW-620 = < 0.01 µM | MDA-MB-435 = 0.0158 µM | MOLT-4 = < 0.01 µM | BT-549 = 1 µM | A498 = < 0.01 µM | Malme-3M < 0.01 µM | RXF 393 = 0.215 µM | SK-MEL-2 = 0.0465 µM | MDA-N < 0.01 µM | IGROV-1 = < 0.01 µM | LOX IMVI < 0.01 µM | HOP-62 = < 0.01 µM | XF498 = 0.0155 µM | SN12C 0.0151 µM | HOP-92 = < 0.01 µM | HL-60 = < 0.01 µM | SF-268 = < 0.01 µM | MDA-MB-231 = < 0.01 µM | SF-295 = < 0.01 µM | PC-3 = < 0.01 µM | DU-145 = < 0.01 µM | SK-MEL-5 = < 0.01 µM | NCI-H23 = < 0.01 µM | A549 = < 0.01 µM | K562 = < 0.01 µM | NCI-H460 = < 0.01 µM | CAKI-1 = < 0.01 µM | DMS-273 = < 0.01 µM | SNB-75 = < 0.01 µM | RPMI-8226 = < 0.01 µM | SNB-19 = 0.0346 µM | OVCAR-8 = < 0.01 µM | DMS-114 = < 0.01 µM | U-251 = < 0.01 µM | SNB-78 = < 0.01 µM | MCF7 = < 0.01 µM | OVCAR-3 = < 0.01 µM | Hs-578T 0.155 µM | DLD-1 = < 0.01 µM | KM12 = < 0.01 µM | COLO 205 = < 0.01 µM
0.0125 µM: HCT-15

COc1c(O)cc2c(c1OC)-c1ccc(OC)c(=O)cc1[C@@H](NC(C)=O)CC2 [3-DESMETHYLCOLCHICIN]
0.356 µM: HCT-15
inactive: NCI/ADR-RES 6.97 µM | OVCAR-5 = 312 µM
active: CCRF-CEM 0.0325 µM | HCT-116 = 0.0873 µM | KM-20L2 = 0.064 µM | NCI-H226 = 0.0895 µM | SW-620 = 0.0596 µM | Malme-3M 0.0346 µM | HOP-62 = 0.22 µM | XF498 = 0.0415 µM | EKVX 0.0601 µM | HOP-92 = < 0.0312 µM | HL-60 = < 0.0312 µM | SF-295 = 0.0824 µM | SK-MEL-5 = < 0.0312 µM | K562 = < 0.0312 µM | NCI-H460 = 0.092 µM | DMS-273 = 0.0333 µM | RPMI-8226 = 0.0325 µM | SNB-19 = 0.191 µM | OVCAR-8 = 0.118 µM | DMS-114 = 0.0325 µM | U-251 = 0.0904 µM | SNB-78 = < 0.0312 µM | SK-MEL-28 = 0.0325 µM | MCF7 = < 0.0312 µM | OVCAR-3 = 0.0325 µM | KM12 = 0.0698 µM | COLO 205 = 0.0841 µM
